Measured values from paper PMC3314968.
Where a chain is given by its changes, count along the chain named. Numbers in names are those of the source. No constants are given. Whether binding was seen depends on the method and setting. For part of these data: In cells and extracts the contact can be indirect. Some results given as binding are weak or reduced against the parent protein; the word gives no strength. For part of these data: Where a sequence is shown, tags or fusion partners need not be part of it.

B1: endogenous UBAP1 from HEK293 cell lysate (protein, UniProt Q9NZ09 1-502)
chain: MASKKLGADFHGTFSYLDDVPFKTGDKFKTPAKVGLPIGFSLPDCLQVVREVQYDFSLEKKTIEWAEEIKKIEEAEREAECKIAEAEAKVNSKSGPEGDSKMSFSKTHSTATMPPPINPILASLQHNSILTPTRVSSSATKQKVLSPPHIKADFNLADFECEEDPFDNLELKTIDEKEELRNILVGTTGPIMAQLLDNNLPRGGSGSVLQDEEVLASLERATLDFKPLHKPNGFITLPQLGNCEKMSLSSKVSLPPIPAVSNIKSLSFPKLDSDDSNQKTAKLASTFHSTSCLRNGTFQNSLKPSTQSSASELNGHHTLGLSALNLDSGTEMPALTSSQMPSLSVLSVCTEESSPPNTGPTVTPPNFSVSQVPNMPSCPQAYSELQMLSPSERQCVETVVNMGYSYECVLRAMKKKGENIEQILDYLFAHGQLCEKGFDPLLVEEALEMHQCSEEKMMEFLQLMSKFKEMGFELKDIKEVLLLHNNDQDNALEDLMARAGAS
B2: endogenous UBAP1 of the OSHA-TSG101 cell line (protein, UniProt Q9NZ09 1-502)
chain: B1 chain
B3: HA-UBAP1 wild-type (WT) (protein, UniProt Q9NZ09 1-502)
chain: B1 chain
B4: HA-UBAP1 mutant M3 (F28A) (protein, UniProt Q9NZ09 1-502)
chain: B1 chain with F28A
B5: HA-UBAP1 mutant M4 (E59A) (protein, UniProt Q9NZ09 1-502)
chain: B1 chain with E59A
B6: HA-UBAP1 mutant M1 (L17D18D19/AAA) (protein, UniProt Q9NZ09 1-502)
chain: B1 chain with L17A, D18A, D19A
B7: HA-UBAP1 mutant M2 (V20P21F22/AAA) (protein, UniProt Q9NZ09 1-502)
chain: B1 chain with V20A, P21A, F22A

Experiments:
[1] = target: endogenous TSG101 from HEK293 cell lysate (human (endogenous in HEK293)) (UniProt Q99816); assay: SEC; HEK293 cell lysate, endogenous proteins; elution close to the 440 kDa marker (Figure S1B)
[2] = target: One-Strep tagged TSG101 (OSHA-TSG101) (human) (UniProt Q99816); assay: pull-down; lysate of cells stably expressing OSHA-TSG101 at endogenous levels; affinity purification on a Strep-Tactin matrix; western blot with anti-TSG101, anti-VPS37A and anti-UBAP1; empty vector (OSHA) cells as control
GST-TSG101 (human) [3] = target: GST-TSG101 (human) (UniProt Q99816); assay: pull-down; 293T cells transfected with GST-TSG101, Myc-VPS28, HA-VPS37A and HA-UBAP1 (WT or M1 to M4); glutathione-coated beads; western blot with anti-HA
GST-TSG101 (human) [4] = target: GST-TSG101 (human) (UniProt Q99816); assay: pull-down; 293T cells transfected with GST-TSG101, Myc-VPS28, HA-VPS37B and HA-UBAP1 (WT or M1 to M4); glutathione-coated beads; western blot with anti-HA
GST-TSG101 (human) [5] = target: GST-TSG101 (human) (UniProt Q99816); assay: condition: only with HA-VPS37B cotransfected in place of HA-VPS37A; pull-down; 293T cells transfected with GST-TSG101, Myc-VPS28, HA-VPS37B and HA-UBAP1 (WT or M1 to M4); glutathione-coated beads; western blot with anti-HA

Binder | binding (GST-TSG101 (human) [3]) | binding (GST-TSG101 (human) [4]) | other results
B1 | – | – | binding [1]: binds
B2 | – | – | binding [2]: binds
B3 | binds | binds | –
B4 | binds | binds | –
B5 | binds | – | binding (GST-TSG101 (human) [5]): no binding
B6 | no binding | no binding | –
B7 | no binding | no binding | –
